# Assay results taken from PMC4336329 (PLoS ONE, 2015).
# The campaign covered roughly 310,000 compounds. About 2,200 (0.71%) showed an effect of 50% or more. Effects have a minus sign here. Some of the results follow.
# Target: human ether-à-go-go-related gene (hERG) potassium channel (human, UniProt Q12809)
# Assay: primary screen, population patch clamp on CHO cells stably expressing hERG
# Chain of human ether-à-go-go-related gene (hERG) potassium channel (Q12809 whole entry, looked up): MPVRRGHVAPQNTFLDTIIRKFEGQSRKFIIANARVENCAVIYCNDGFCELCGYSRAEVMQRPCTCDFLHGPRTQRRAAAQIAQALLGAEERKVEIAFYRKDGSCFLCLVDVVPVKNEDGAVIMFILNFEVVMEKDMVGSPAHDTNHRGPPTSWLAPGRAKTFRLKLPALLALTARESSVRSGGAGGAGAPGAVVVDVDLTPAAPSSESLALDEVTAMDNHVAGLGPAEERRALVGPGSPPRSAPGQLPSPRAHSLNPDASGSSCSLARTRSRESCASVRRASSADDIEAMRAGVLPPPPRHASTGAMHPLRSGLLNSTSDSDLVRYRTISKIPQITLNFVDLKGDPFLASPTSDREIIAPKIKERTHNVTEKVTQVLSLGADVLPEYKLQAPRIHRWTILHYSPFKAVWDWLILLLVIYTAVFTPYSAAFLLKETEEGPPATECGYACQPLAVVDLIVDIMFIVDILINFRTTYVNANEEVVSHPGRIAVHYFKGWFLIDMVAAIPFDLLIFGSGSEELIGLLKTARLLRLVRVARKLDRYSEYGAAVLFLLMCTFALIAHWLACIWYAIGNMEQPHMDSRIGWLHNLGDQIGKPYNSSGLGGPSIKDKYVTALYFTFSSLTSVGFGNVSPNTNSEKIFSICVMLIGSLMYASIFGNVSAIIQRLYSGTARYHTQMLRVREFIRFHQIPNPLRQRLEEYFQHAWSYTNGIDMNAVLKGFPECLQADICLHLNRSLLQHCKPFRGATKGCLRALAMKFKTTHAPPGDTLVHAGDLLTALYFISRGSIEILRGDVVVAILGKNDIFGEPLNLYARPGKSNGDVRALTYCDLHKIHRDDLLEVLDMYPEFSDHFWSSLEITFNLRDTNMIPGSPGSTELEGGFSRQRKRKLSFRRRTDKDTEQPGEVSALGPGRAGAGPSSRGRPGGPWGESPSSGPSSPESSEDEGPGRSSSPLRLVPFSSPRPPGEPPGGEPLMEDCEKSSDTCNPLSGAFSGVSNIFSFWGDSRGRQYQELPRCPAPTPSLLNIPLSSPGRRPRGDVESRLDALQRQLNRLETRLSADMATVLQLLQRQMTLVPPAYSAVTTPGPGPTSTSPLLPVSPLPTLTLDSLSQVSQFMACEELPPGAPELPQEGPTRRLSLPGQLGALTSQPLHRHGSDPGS
row,Structure (SMILES),"hERG current change (%, negative = inhibition) at 1uM [%]"
1,O=C(CCc1ccccc1)Nc1ccc(NC(=O)C2CCCCC2)nc1,12.4
2,CCCn1c(SCC(=O)NCCc2ccccc2)nnc1C(C)C,10.1
3,CC1CN(C(=O)COC(=O)/C=C/c2ccc(C(F)(F)F)cc2)CC(C)O1 (centres unmarked),9.6
4,O=C(COc1ccccc1)Nc1ccc(-c2nnc(-c3ccco3)o2)cc1,9.91
5,NC(=NCc1ccco1)NC(=O)c1ccc(Cl)cc1,-3.12
6,NC(=S)N=Nc1ccc(NN=C(N)N)cc1,9.26
7,CCC(CC)C(=O)NN(C(=O)c1ccncc1)C1CC(=O)N(c2ccccc2)C1=O (centres unmarked),12.1
8,COc1ccc(OCC(O)CN2CCN(Cc3ccc4c(c3)OCO4)CC2)cc1.Cl (centres unmarked),-9.87
9,CS(=O)(=O)c1ccc(NCCc2ccccn2)c([N+](=O)[O-])c1,-2.48
10,CCCCN1CC[C@H]2C=CC[C@@H](C(=O)Nc3ccc(Cl)cc3Cl)[C@H]2C1=O,3.29
11,O=C(NNC(=O)C12CC3CC(CC(C3)C1)C2)c1ccccc1F,6.91
12,Cc1ccc(C(=O)NS(=O)(=O)c2ccc(C)cc2)cc1,20.7
13,O=C(N1CCOCC1)N(CCN1CCOCC1)Cc1cccc2ccccc12,7.6
14,CCn1nc(C)c(C2C(C#N)=C(N)OC3=C2C(=O)CC(C)(C)C3)c1C (centres unmarked),9.51
15,CCN(CCO)Cc1csc2cc(C)ccc12.Cl,-0.923
16,OCC1CCCN(c2nc(CN3CCCCC3)nc3scc(-c4ccccc4)c23)C1 (centres unmarked),-16.5
17,CN(Cc1ccccc1)C(=O)c1nn2cccnc2c1Cl,13.2
18,Cc1ccccc1OCC(O)CNC1CCC(NCC(O)COc2ccccc2C)CC1 (centres unmarked),7.91
19,CC1CCCCN1C(=O)COc1ccc(F)cc1 (centres unmarked),7.67
20,COCCN(C(=S)Nc1ccccc1OC)C1CCN(C(C)C)CC1,-8.33
21,O=C(c1ccc(CS(=O)Cc2ccccc2Cl)o1)N1CCN(c2cccc(Cl)c2)CC1 (centres unmarked),5.79
22,CS(=O)(=O)N(CC(=O)N1CCN(Cc2ccc3c(c2)OCO3)CC1)C1CCCCC1,4.35

row,Structure (SMILES),"hERG current change (%, negative = inhibition) at 1uM [%]"
1,COc1cccc(N=C2C(=O)N3CCCc4cccc2c43)c1,16.3
2,COc1ccc(NC2CCCN(C(=O)c3cccc(N4CCNC4=O)c3)C2)cc1 (centres unmarked),16.3
3,O=C1C(=O)N(Cc2cccs2)c2ccccc21,12.9
4,COC(=O)c1c(Cl)c2n3ccccc3c(C)c(-c3ccccc3)c-2c1C(=O)OC,16.3
5,CCN(C(=S)NC(=O)C1CCCC1)C1CCCCC1,11.7
6,COc1ccc(-c2csc(NC(C)c3nc4cc(Cl)c(Cl)cc4n3CCCO)n2)cc1 (centres unmarked),13.1
7,C#CCSc1nnc(CSc2nc3ccccc3s2)n1-c1ccccc1,16.5
8,CCOc1ccc(N(CC)C(=O)c2cn(CC)c(=O)c3cc(OC)c(OC)cc23)cc1,11
9,CC1CCCCN1C(=O)c1cc(S(=O)(=O)N2CCCCC2)c[nH]1 (centres unmarked),15.8
10,O=C(c1cc2ccccc2o1)N1CCN(c2cccc(C(F)(F)F)c2)CC1,10.7
11,Cc1ccc(C(=O)N/C(=C/c2cccc([N+](=O)[O-])c2)C(=O)NC(C)C)cc1,-12.2
12,CC1CC/C(=C\c2ccc3c(c2)OCO3)C(=O)/C1=C/c1ccc2c(c1)OCO2 (centres unmarked),12.3
13,COc1ccc(-c2c(C)nn(-c3ccccc3)c2NC(C)=O)cc1OC,14.8
14,O=C(CN1C(=O)c2ccccc2S1(=O)=O)c1ccc2c(c1)OCCO2,7.64
15,CCc1cc(C(=O)NC(C)C2CCCO2)cs1 (centres unmarked),29.8
16,COC(=O)c1c(C(=O)OC)c(-c2cccc(Cl)c2)n2c1CS(=O)(=O)C2,8.36
17,C=CCn1c(SCC(N)=O)nnc1-c1ccccc1O,-0.193
18,O=C(CCN=C1NS(=O)(=O)c2ccccc21)OCC(=O)c1ccc(F)cc1,26.6
19,O=C(Cc1nc(-c2ccc(Br)s2)cs1)NCCN1CCOCC1,7.47
20,O=C(Cn1ccc(NC(=O)OCc2ccccc2)nc1=O)NCCN1CCOCC1,15.1
21,CN(CCC#N)C(=O)COC(=O)c1ccc(Cl)c(S(=O)(=O)N(C)c2ccccc2)c1,-17.6
22,CCCC(=O)Nc1c(-c2ccc(C)cc2)c(=O)c2ccccc2n1C,5.38
